Measured values reported in the supplement of paper PMC9446081.
The campaign covered roughly 39,000 compounds. About 220 (0.56%) showed activity. The list shows a part of the results.

Test system: Escherichia coli K-12 BW25113
Test: relative growth (OD600 normalised to plate interquartile mean) (fraction); higher = less growth inhibition, active = 0.2 or less
Conditions: 50 µM; LB; incubation time: overnight (16-24 h)
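Note: static incubation at 37 °C against the wild-type strain, values averaged over two biological replicates.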

SMILES | relative growth
CC(C)NC(=O)Nc1ccc2c(c1)CC(=O)N([C@H](C)CO)C[C@H](C)[C@@H](CN(C)Cc1ccc3c(c1)OCO3)O2 | inactive: 1.02
C[C@@H]1CN([C@@H](C)CO)C(=O)c2cc(NC(=O)c3ccccc3)ccc2O[C@@H](C)CCCCO[C@@H]1CN(C)C(=O)Nc1ccccc1 | inactive: 1
C[C@H]1CN([C@@H](C)CO)C(=O)c2cc(NC(=O)Cn3cnnn3)ccc2O[C@@H]1CN(C)Cc1ccccc1 | inactive: 1.03
COc1ccc(-c2cnc3c(c2)C(=O)N([C@@H](C)CO)C[C@H](C)[C@H](CN(C)C(=O)Cc2cccnc2)O3)cc1 | inactive: 0.951
C[C@]1(C(=O)NCC(F)(F)F)c2ccccc2C(=O)N(Cc2cc(C(F)(F)F)cc(C(F)(F)F)c2)[C@H]1c1ccc(CO)cc1 | inactive: 0.986
COCC(=O)Nc1ccc2c(c1)OC[C@H](C)N(C(=O)Cc1ccccn1)C[C@@H](C)[C@H](OC)CN(C)C2=O | inactive: 0.974
COc1ccc(S(=O)(=O)N(C)C[C@@H]2Oc3c(cccc3N(C)C)C(=O)N([C@H](C)CO)C[C@H]2C)cc1 | inactive: 1.02
CC1(C)OC(=O)NC1=O | inactive: 1.02
O=S1(=O)[C@@H]2C[C@H]3C=CC2(CN1C1CC1)O3 | inactive: 1.01
COCC(=O)Nc1ccc2c(c1)C(=O)N(C)C[C@@H](OC)[C@@H](C)CN(Cc1cccc(F)c1)[C@@H](C)CO2 | inactive: 1.01
c1ccc(-c2cc(-c3ccccc3)n(-c3ccccc3)n2)cc1 | inactive: 0.986
COc1ccc(S(=O)(=O)N(C)C[C@H]2Oc3cc(C#CC4CC4)ccc3S(=O)(=O)N([C@@H](C)CO)C[C@H]2C)cc1 | inactive: 1.07
C[C@H](CO)N1C[C@H](C)[C@H](CN(C)C(=O)Nc2ccc3c(c2)OCO3)Oc2ncc(C#CCN(C)C)cc2C1=O | inactive: 0.993
COc1ccccc1C(=O)Nc1ccc2c(c1)C(=O)N(C)[C@H]1CC[C@H](CC(=O)NCc3ccc(Cl)c(Cl)c3)O[C@@H]1CO2 | inactive: 1.02
C[C@@H]1CN([C@@H](C)CO)C(=O)c2cc(NC(=O)Nc3ccccc3)ccc2O[C@@H](C)C/C=C/CO[C@H]1CN(C)S(=O)(=O)c1ccc(F)cc1 | inactive: 1.02
Cc1noc(C)c1S(=O)(=O)N(C)C[C@H]1OCCCC[C@@H](C)Oc2ccc(NS(C)(=O)=O)cc2C(=O)N([C@@H](C)CO)C[C@@H]1C | inactive: 1.01
C[C@H]1CCCCO[C@H](CN(C)S(=O)(=O)c2ccc(Cl)cc2)[C@@H](C)CN([C@@H](C)CO)C(=O)c2cc(NC(=O)Nc3ccc(F)cc3)ccc2O1 | inactive: 1.04
C=C1C(=O)O[C@@H]2[C@H]3C(=CO[C@@H]4O[C@H](CO)[C@@H](O)[C@H](O)[C@H]4O)CC(=O)C3=C(C)CC[C@@H]12 | inactive: 1
Cn1cncc1C#N | inactive: 0.984
C[C@H]1CCCCO[C@H](CN(C)C(=O)Nc2ccccc2)[C@@H](C)CN([C@@H](C)CO)C(=O)c2cc(NS(=O)(=O)c3ccccc3)ccc2O1 | inactive: 1.04

SMILES | relative growth
C[C@@H]1CN([C@H](C)CO)C(=O)c2cc(NC(=O)CCN3CCOCC3)ccc2O[C@H]1CN(C)Cc1ccc(C(=O)O)cc1 | inactive: 0.998
CC(CCC(=O)O)C1CCC2C3CCC4CC(O)CCC4(C)C3CC(O)C12C (stereo not given) | inactive: 0.859
COc1ccc([C@@H]([C@H](Cc2ccccc2)OC(C)=O)N2C[C@@H](CC(=O)N(C)C)[C@H]3[C@@H]([C@@H]2Cc2ccccc2)N(C)O[C@@H]3c2ccccc2)cc1 | inactive: 1.03
C[C@@H]1CN([C@H](C)CO)C(=O)c2cccc(NC(=O)Nc3ccc(F)cc3)c2O[C@@H]1CN(C)Cc1ccc(C(F)(F)F)cc1 | inactive: 1.01
C[C@@H]1CCCCO[C@H](CN(C)C(=O)CCC(F)(F)F)[C@H](C)CN([C@H](C)CO)C(=O)c2cc(NC(=O)Cc3ccccc3)ccc2O1 | inactive: 0.992
COc1ccc(S(=O)(=O)Nc2cccc3c2O[C@@H](CN(C)C(=O)Nc2cccc4ccccc24)[C@@H](C)CN([C@@H](C)CO)C3=O)cc1 | inactive: 0.994
CC1=CC(=O)C2C(C)(C)CCCC2(C)C1(O)CCc1ccoc1 (stereo not given) | inactive: 1.03
C[C@@H]1CCCCO[C@@H](CN(C)Cc2ccccc2)[C@@H](C)CN([C@H](C)CO)C(=O)c2cc(NS(=O)(=O)c3ccc(Cl)cc3)ccc2O1 | inactive: 0.996
CC(=O)N1[C@H](CNC(=O)CN2CCOCC2)[C@@H](c2ccccc2)[C@@H]1CO | inactive: 1.01
C[C@H]1CN([C@@H](C)CO)C(=O)CCCn2cc(nn2)CO[C@@H]1CN(C)C(=O)C1CC1 | inactive: 1.04
COc1ccc(NC(=O)N(C)C[C@H]2OCCCC[C@H](C)Oc3ccc(NS(=O)(=O)c4c(C)noc4C)cc3C(=O)N([C@@H](C)CO)C[C@H]2C)cc1 | inactive: 0.984
Cc1ccc(-c2ccc3c(c2)O[C@H](CN(C)C(=O)CN(C)C)[C@H](C)CN([C@H](C)CO)S3(=O)=O)cc1 | inactive: 0.97
C[C@@H]1CN([C@H](C)CO)C(=O)c2cc(NC(=O)Cc3ccccc3)ccc2O[C@@H](C)CCCCO[C@H]1CN(C)C(=O)NC1CCCCC1 | inactive: 0.982
C[C@H]1CCCCO[C@@H](CN(C)C(=O)CCC(F)(F)F)[C@@H](C)CN([C@@H](C)CO)C(=O)c2cc(NC(=O)C3CCCCC3)ccc2O1 | inactive: 0.95
C[C@@H]1CN([C@@H](C)CO)C(=O)Cc2cc(NC(=O)Nc3ccccc3)ccc2O[C@@H]1CN(C)Cc1ccc(Cl)c(Cl)c1 | inactive: 1.02
C[C@@H]1CN([C@H](C)CO)C(=O)c2cc(NC(=O)NC3CCCCC3)ccc2O[C@@H](C)CCCCO[C@@H]1CN(C)C(=O)Nc1ccc(F)cc1 | inactive: 1
CN(C)CCCC[C@@H]1NC(=O)[C@@H]2C[C@H](C(=O)NCCCCCCNC(=O)CS)[C@H](c3ccc(O)cc3)N2C1=O | inactive: 1
C[C@@H]1CN([C@H](C)CO)C(=O)c2cccc(NS(=O)(=O)c3cn(C)cn3)c2O[C@@H]1CN(C)Cc1ccccc1 | inactive: 0.995
COc1ccc(S(=O)(=O)Nc2cccc3c2O[C@@H](CN(C)CC2CC2)[C@H](C)CN([C@H](C)CO)C3=O)cc1 | inactive: 0.994
Cc1ncc(CSSCc2cnc(C)c(O)c2CO)c(CO)c1O | inactive: 1.13

SMILES | relative growth
OC[C@H]1O[C@@H](Nc2ccccn2)[C@@H](O)[C@@H](O)[C@@H]1O | inactive: 1.01
Cc1noc(C)c1NC(=O)Nc1ccc2c(c1)C(=O)N([C@H](C)CO)C[C@@H](C)[C@@H](CN(C)Cc1ccccc1)OCCCC[C@H](C)O2 | inactive: 1.04
C[C@H](CO)N1C[C@H](C)[C@@H](CN(C)S(=O)(=O)c2cccs2)Oc2ccc(NC(=O)Cn3cnnn3)cc2CC1=O | inactive: 1
C[C@H](CO)N1C[C@H](C)[C@H](CN(C)S(=O)(=O)c2cn(C)cn2)Oc2ccc(NC(=O)CCN3CCOCC3)cc2C1=O | inactive: 1.02
CC(=O)NCC(=O)N1C[C@H](N(C)Cc2cncnc2)[C@@H]2OCCC[C@@H]21 | inactive: 1
C[C@@H]1CCCCO[C@H](CN(C)C(=O)Nc2ccc(C(F)(F)F)cc2)[C@@H](C)CN([C@H](C)CO)C(=O)c2cc(NC(=O)Cc3ccccc3)ccc2O1 | inactive: 1.04
COc1ccc(CNC(=O)c2cc3c(c(-c4cccc(-c5cccc(C#N)c5)c4)n2)[C@@H](CCO)N([S@](=O)C(C)(C)C)C3)cc1 | inactive: 0.975
C[C@@H]1CN([C@@H](C)CO)C(=O)c2cc(NC(=O)Cn3cnnn3)ccc2O[C@@H]1CN(C)S(=O)(=O)c1ccc(Cl)cc1 | inactive: 1
CC[C@H](C)n1ncn(-c2ccc(N3CCN(c4ccc(OC[C@H]5CO[C@](Cn6cncn6)(c6ccc(Cl)cc6Cl)O5)cc4)CC3)cc2)c1=O | inactive: 1.04
CO[C@H]1CN(C)C(=O)c2cc(NC(=O)C3CC3)ccc2OC[C@@H](C)N(C(=O)Cc2ccccn2)C[C@H]1C | inactive: 0.972
C[C@H](CO)N1C[C@H](C)[C@@H](CN(C)Cc2ccc(-c3ccccc3)cc2)Oc2ccc(NC(=O)Cc3cn(C)c4ccccc34)cc2CC1=O | inactive: 0.985
Cc1noc(C)c1NC(=O)N(C)C[C@@H]1Oc2ncc(C#CCC(C)C)cc2C(=O)N([C@@H](C)CO)C[C@H]1C | inactive: 0.966
C[C@H](CO)N1C[C@H](C)[C@H](CN(C)C(=O)C2CCOCC2)Oc2ncc(C#CCc3ccccc3)cc2C1=O | inactive: 0.963
C[C@@H]1CN([C@@H](C)CO)C(=O)c2cc(NC(=O)Nc3ccccc3)ccc2O[C@H]1CN(C)Cc1ccc(Oc2ccccc2)cc1 | inactive: 0.931
C[C@@H]1CN([C@H](C)CO)C(=O)Cc2cc(NC(=O)Nc3cccc4ccccc34)ccc2O[C@@H]1CN(C)Cc1ccc2c(c1)OCO2 | inactive: 0.984
C[C@@H]1CN([C@H](C)CO)C(=O)Cc2cc(NS(=O)(=O)c3cccs3)ccc2O[C@@H]1CN(C)S(=O)(=O)c1ccc(F)cc1 | inactive: 0.889
CNC(=O)c1ccccc1N | inactive: 1
COc1ccc(CNC(=O)C[C@H]2C[C@H]3c4cc(NS(=O)(=O)c5ccc(F)cc5)ccc4O[C@H]3[C@@H](CO)O2)cc1 | inactive: 1.03
NC(=O)CC(N)C(=O)O.O (stereo not given) | inactive: 0.956
Cc1ccc(S(=O)(=O)Nc2ccc3c(c2)C(=O)N([C@H](C)CO)C[C@H](C)[C@H](CN(C)S(=O)(=O)c2c(C)noc2C)O3)cc1 | inactive: 0.992
